# Experimental data: PubChem BioAssay AID2147 (National Center for Advancing Translational Sciences (NCATS), 2009)
# In all, about 230,000 compounds went through this assay and about 3,600 (1.6%) were called active. This list was built around the results that the source calls inconclusive (neither active nor inactive); the mix of calls is not that of the screen. Calls come from the whole dose curve; as a rule, active = well fitted inhibition curve with a large enough effect (not every such curve was filed as active); inconclusive = small, poorly fitted or top-dose-only effect, or another doubt; inactive = no such curve, though single readings can be large or run the other way. Potencies of inconclusive entries are doubtful fits and often do not repeat.
# Target: Lysine-specific demethylase 4E (Homo sapiens) (UniProt B2RXH2)
# Test: qHTS Assay for Inhibitors of Human Jumonji Domain Containing 2E (JMJD2E)
# Details: JMJD2E catalytic domain, FDH-coupled NADH fluorescence (FDH is formaldehyde dehydrogenase); series mostly up to 57.1 µM
# Note: nearly all actives have a fitted effect of over 50% in size.
# Potency is the fitted concentration of half-maximal effect; tags give direction and shape of the fitted curve.
# Sequence of UniProt B2RXH2 (B2RXH2 whole entry, looked up, the tested form may be a part): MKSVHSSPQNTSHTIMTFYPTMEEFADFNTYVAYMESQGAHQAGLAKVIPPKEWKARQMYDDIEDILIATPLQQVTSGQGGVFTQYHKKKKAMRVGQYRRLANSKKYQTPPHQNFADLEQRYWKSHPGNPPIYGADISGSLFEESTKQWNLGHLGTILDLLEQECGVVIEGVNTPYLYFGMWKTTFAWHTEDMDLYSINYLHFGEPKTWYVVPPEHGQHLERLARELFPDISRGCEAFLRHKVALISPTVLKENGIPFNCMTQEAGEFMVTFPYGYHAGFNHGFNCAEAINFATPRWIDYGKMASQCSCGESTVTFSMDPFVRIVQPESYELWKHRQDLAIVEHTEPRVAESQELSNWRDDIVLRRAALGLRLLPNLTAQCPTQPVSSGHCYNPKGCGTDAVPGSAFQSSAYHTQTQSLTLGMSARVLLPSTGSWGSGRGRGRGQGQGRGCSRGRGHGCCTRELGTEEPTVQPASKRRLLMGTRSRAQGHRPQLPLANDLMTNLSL
row,Compound,Potency
1,Nc1ccccc1C(=O)Nc1ccc(Cl)cc1Cl,"inconclusive: 28.2 µM [inhibitor, partial curve]"
2,O=C1N/C(=N/O)S/C1=C\c1ccccc1-n1cccn1,inactive
3,CCn1nc(C)cc1C(=O)N1CCCC(CCC(=O)NCc2ccccc2F)C1 (stereo not given),"inconclusive: 39.8 µM [inhibitor, single point]"
4,Nc1c(C(=O)NCc2ccco2)sc2nc(N3CCOCC3)c3c(c12)CCCC3,"inconclusive: 11.2 µM [inhibitor, partial curve]"
5,O=S(=O)(c1ccccc1)c1cccc(S(=O)(=O)N2CCCCC2)c1,inactive
6,CCC(=O)N(Cc1ccc(S(N)(=O)=O)cc1)C1CC(=O)N(c2ccccc2)C1=O (stereo not given),inactive
7,O=C(O)CSc1cc(NS(=O)(=O)c2cccc([N+](=O)[O-])c2)c2ccccc2c1O,"inconclusive: 3.55 µM [inhibitor, full curve]"
8,CC(C)CC1C(C#N)=C(N)Oc2n[nH]c(-c3ccccc3)c21 (stereo not given),"inconclusive: 22.4 µM [inhibitor, partial curve]"
9,COc1ccc(S(=O)(=O)CCC(=O)Nc2cc(C)ccc2OC)cc1,inactive
10,O=C(Oc1ccccc1C(=O)O)c1ccccc1O,"inconclusive: 28.2 µM [inhibitor, partial curve]"
11,COc1ccc(C(=O)c2ccc(Cl)c([N+](=O)[O-])c2)cc1,inactive
12,CCOC(=O)C1CCCN(C(c2ccccn2)c2c(C)[nH]c3ccccc23)C1 (stereo not given),"inconclusive: 35.5 µM [inhibitor, single point]"
13,COC(=O)Cc1c(C)c2ccc(OC(=O)c3ccccc3)cc2oc1=O,"inconclusive: 28.2 µM [inhibitor, partial curve]"
14,O=C(O)c1nccnc1C(=O)Nc1ccccc1-c1ccccc1,"inconclusive: 28.2 µM [inhibitor, single point]"
15,Fc1ccc(/C=N/Nc2nnnn2-c2ccccc2)cc1,"inconclusive: 35.5 µM [inhibitor, single point]"
16,COc1ccc(OC)c(CN2CCN(C(=O)c3cccs3)CC2)c1,"inconclusive: 39.8 µM [inhibitor, single point]"
17,O=C(CSc1ccc2nnc(-c3ccc(F)cc3)n2n1)N1CCCc2ccccc21,"inconclusive: 35.5 µM [inhibitor, single point]"
18,COC(=O)c1ccc(C(NC(=O)OCc2ccccc2)/C(F)=C/[C@@H](C)C(=O)NCc2cc(C)on2)cc1 (stereo not given in full),inactive
19,CCc1[nH]c(=O)c(C#N)c2c1CCCC2,"inconclusive: 12.6 µM [inhibitor, partial curve]"
20,COc1nc(-c2ccc(Cl)cc2)ccc1-c1noc(-c2ccco2)n1,"inconclusive: 22.4 µM [inhibitor, single point]"
